Assay results from PubChem BioAssay AID485294 (National Center for Advancing Translational Sciences (NCATS), 2010).
The whole screen tested about 370,000 compounds, of which about 150 (0.041%) were called active. The shares of active, inactive and inconclusive entries below differ from those in the screen. Calls come from the whole dose curve; as a rule, active = well fitted inhibition curve with a large enough effect; inconclusive = small, poorly fitted or top-dose-only effect; inactive = flat fitted curve, though single readings scatter. No potency is given beside an inconclusive call; the fits are too rough.

What follows are molecules tested against Beta-lactamase (Escherichia coli (strain K12)) (UniProt P00811) (assay: qHTS Inhibitors of AmpC Beta-Lactamase (assay with detergent)). Conditions: AmpC hydrolysis of nitrocefin, absorbance 480 nm, 0.01% Triton; series mostly up to 114 µM.
Outline: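 AmpC (5.3 nM in the dispensed reagent) in 20 mM phosphate pH 7.0 with 0.01% (detergent screen) or 0.0001% Triton X-100 was preincubated with compounds for 15 min at room temperature. Nitrocefin was then added from an 800 uM solution, and hydrolysis was followed at 480 nm.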
Note: nearly all actives have a fitted effect of over 25% in size.
Potency is the fitted concentration of half-maximal effect; tags give direction and shape of the fitted curve.

UniProt P00811, sequence (P00811 whole entry, looked up): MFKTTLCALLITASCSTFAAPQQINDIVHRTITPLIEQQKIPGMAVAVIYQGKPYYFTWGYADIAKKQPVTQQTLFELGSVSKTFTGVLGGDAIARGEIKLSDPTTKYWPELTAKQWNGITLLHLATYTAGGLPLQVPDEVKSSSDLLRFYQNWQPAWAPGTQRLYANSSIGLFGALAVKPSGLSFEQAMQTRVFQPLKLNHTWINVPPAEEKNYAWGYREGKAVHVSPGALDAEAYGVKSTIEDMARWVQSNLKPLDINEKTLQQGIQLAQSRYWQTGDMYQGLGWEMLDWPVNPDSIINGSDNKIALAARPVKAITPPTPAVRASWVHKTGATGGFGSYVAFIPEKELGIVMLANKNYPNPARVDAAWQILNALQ

Question: How did the Potency turn out when `CCC(=O)N(Cc1cc(=O)[nH]c2ccccc12)c1ccccc1C` was run?
Answer: inconclusive [inhibitor, full curve, poor fit]

Question: How did the Potency turn out when `COc1ccc(OC)c(-n2c(=S)[nH]c3cc(C(=O)NCCCN4CCCC4=O)ccc3c2=O)c1` was run?
Answer: inconclusive [inhibitor, partial curve]

Question: Which Potency does the source give for `CC1=C(C(=O)NC(C)CCc2ccccc2)C2(CCC(C)CC2)OC1=O` (configuration not stated) here?
Answer: inconclusive [inhibitor, partial curve, poor fit]

Question: Which Potency does the source give for `COc1ccc(C2CC(c3ccccc3)=NN2C(=O)COC(=O)c2cccc(S(=O)(=O)N3CCOCC3)c2)cc1` (configuration not stated) here?
Answer: inconclusive [inhibitor, full curve, poor fit]

Question: For `CCCn1nc(C(=O)NCC2COc3ccccc3O2)c2ccccc2c1=O` (configuration not stated), which Potency is on record?
Answer: inconclusive [inhibitor, full curve, poor fit]

Question: For `Cc1ccc(S(=O)(=O)N2CCOCC2)cc1C(=O)OCC(=O)NC1CCCCC1`, which Potency is on record?
Answer: inconclusive [inhibitor, partial curve, poor fit]

Question: With `Fc1ccc(CNCCc2ccc3c(c2)OCO3)cc1` as the molecule, how does the Potency read?
Answer: inconclusive [inhibitor, single point]

Question: With `Cc1nn(CC(O)COc2ccc3c(c2)CCC3)c(C)c1C` (configuration not stated) as the molecule, how does the Potency read?
Answer: inconclusive [inhibitor, partial curve, poor fit]

Question: Which Potency does the source give for `S=c1[nH]nc(-c2cccnc2)n1C1CCCCC1` here?
Answer: inconclusive [inhibitor, full curve]

Question: Which Potency does the source give for `COc1ccc2oc(-c3ccc(C)c(NC(=O)c4ccc(-c5ccccc5[N+](=O)[O-])o4)c3)nc2c1` here?
Answer: inactive

Question: `CCCCNC(=O)CSc1nnc(-c2ccc(S(=O)(=O)N3CCCC3)cc2)n1C` was tested. Which Potency did it give?
Answer: inconclusive [inhibitor, single point]

Question: With `CCOc1ccc2nc(NC(=O)CSc3nc4c(c(=O)n(C)c(=O)n4C)n3CC)sc2c1` as the molecule, how does the Potency read?
Answer: inconclusive [inhibitor, partial curve, poor fit]

Question: How did the Potency turn out when `Cc1ccc(CS(=O)(=O)Cc2ccc(C(=O)NC3CC3)o2)cc1` was run?
Answer: inactive

Question: How did the Potency turn out when `Cc1ccc(NC(=O)CN2C(=O)NC(Cc3c[nH]c4ccccc34)C2=O)cc1` (configuration not stated) was run?
Answer: inconclusive [inhibitor, full curve, poor fit]

Question: Which Potency does the source give for `O=C(CCC1CCCC1)Nc1ccc(Br)cn1` here?
Answer: inconclusive [inhibitor, full curve]

Question: How did the Potency turn out when `O=C1NCCc2c1[nH]c1c(Cl)ccc(Cl)c21` was run?
Answer: inconclusive [inhibitor, full curve]

Question: `Cc1ccc(CNc2ccc(N3CCOCC3)cc2)s1` was tested. Which Potency did it give?
Answer: inconclusive [inhibitor, full curve, poor fit]
